# Hit rate of the full screen: of about 410,000 compounds, about 6,400 (1.6%) were called active. The shares of active, inactive and inconclusive entries below differ from those in the screen. Calls come from the whole dose curve; as a rule, active = well fitted inhibition curve with a large enough effect; inconclusive = small, poorly fitted or top-dose-only effect; inactive = no such curve, though single readings can be large or run the other way. No potency is given beside an inconclusive call; the fits are too rough.
# Biological target: Glucagon-like peptide 1 receptor (Homo sapiens) (UniProt P43220)
# Sequence of UniProt P43220 (P43220 whole entry, looked up): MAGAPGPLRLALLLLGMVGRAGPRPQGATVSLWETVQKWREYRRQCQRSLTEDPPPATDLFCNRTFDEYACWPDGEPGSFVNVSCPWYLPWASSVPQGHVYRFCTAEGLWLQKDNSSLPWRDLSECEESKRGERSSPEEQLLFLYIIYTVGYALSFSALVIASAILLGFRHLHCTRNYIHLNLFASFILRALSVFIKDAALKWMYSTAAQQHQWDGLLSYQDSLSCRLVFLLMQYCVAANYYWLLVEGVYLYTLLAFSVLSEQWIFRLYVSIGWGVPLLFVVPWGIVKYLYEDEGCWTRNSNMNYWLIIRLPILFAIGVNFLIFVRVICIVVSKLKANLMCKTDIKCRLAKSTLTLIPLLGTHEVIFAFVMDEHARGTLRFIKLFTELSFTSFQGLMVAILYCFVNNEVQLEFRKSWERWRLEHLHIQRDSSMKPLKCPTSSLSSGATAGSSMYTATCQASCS
# Assay: qHTS of GLP-1 Receptor Inverse Agonists (Inhibition Mode); note: nearly all actives have a fitted effect of over 55% in size
# Conditions: HEK293 GLP-1R CRE-luciferase, luminescence, 24 h; Potency: GLP-1R form is constitutively active unless noted; series mostly up to 38.3 µM
# Outline: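 Inverse agonists were sought by their lowering of basal cAMP reporter luciferase output in HEK293 cells stably carrying constitutively active human GLP-1R, after 24 h compound treatment.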
# Potency is the fitted concentration of half-maximal effect; tags give direction and shape of the fitted curve.
row,SMILES,Potency
1,NC(Cc1ccc(Cl)cc1)c1csc(Nc2ncccn2)n1 (configuration not stated),"inconclusive [inhibitor, single point]"
2,CC(C)CC(N(C)C)C1(c2ccc(Cl)cc2)CCC1 (configuration not stated),"inconclusive [inhibitor, single point]"
3,C[C@]12CCC3C(CC[C@H]4C[C@H](N)CC[C@]34C)C1CC[C@H]2O (some centres not stated),"inconclusive [inhibitor, single point]"
4,CC(=O)OC(C)(C)/C=C/C(=O)[C@](C)(O)[C@H]1[C@H](O)C[C@@]2(C)[C@@H]3CC=C4[C@H](C[C@H](O)C(=O)C4(C)C)[C@]3(C)C(=O)C[C@]12C,"inconclusive [inhibitor, partial curve, poor fit]"
5,C=C1C(=O)O[C@@H]2C[C@@H](C)[C@@H]3C4OC4C(=O)[C@@]3(C)[C@@H](O)[C@H]12 (some centres not stated),"inconclusive [inhibitor, partial curve, poor fit]"
6,COCCCNC(=S)NCCCNc1nc2cc(C)cc(C)c2cc1C#N,active: 11.2 µM
7,CCOC(=O)[C@]12Cc3cc(Cl)ccc3[C@H]1N(C)C(=O)c1ccccc12,inactive
8,CCCCOCCCn1c(N)c(C(=O)OCCOC)c2nc3ccccc3nc21,"inconclusive [inhibitor, single point]"
9,CC(=O)OC1N=C(c2ccccc2)c2cc(C)ccc2NC1=O (configuration not stated),inactive
10,COc1ccc(N/N=C/c2c(O)n(-c3cccc(C)c3)c(=O)[nH]c2=O)cc1,"inconclusive [inhibitor, full curve, poor fit]"
11,Cc1ccc(OCC(=O)N2CCN(Cc3ccc4c(c3)OCO4)CC2)cc1C,"inconclusive [inhibitor, partial curve, poor fit]"
12,COc1cccc(C(=O)C2CCCN(Cc3cccc4c3OCO4)C2)c1 (configuration not stated),"inconclusive [inhibitor, single point]"
13,O=C1NC(=O)N(c2ccccc2)C(=O)/C1=C\C=C\c1ccccc1,"inconclusive [inhibitor, single point]"
14,COc1ccc(-n2nnnc2C(c2cccc3ccccc23)N2CCC(n3c(=O)[nH]c4ccccc43)CC2)cc1 (configuration not stated),"inconclusive [inhibitor, single point]"
15,Cc1ccc(-n2c(O)c(C=NCCC3=CCCCC3)c(=O)[nH]c2=O)cc1,"inconclusive [inhibitor, single point]"
16,CCOC(C(=O)OCCC[N+](C)(CC)CC)(c1ccccc1)c1ccccc1,inactive
17,O=C(CN1CC=C(c2ccccc2)CC1)Nc1c(Cl)cccc1Cl,inactive

# From PubChem BioAssay AID624417 (National Center for Advancing Translational Sciences (NCATS), 2012)
